Results on 31 molecules are retold here after publication PMC9911399, “Two distinct binding modes provide the RNA-binding protein RbFox with extraordinary sequence specificity”.

Substitutions are numbered along the chain they refer to; changes in the protein carry UniProt numbers. This is one part of the list.

B1: UGUUGCC (DNA:RNA)
RNA: GGGAGACCGGAAUUCAGAUUGUCCUGUUGCCUUAAAUCCCGUCGUAGCCACCA
DNA 1: CAATCTGAATTCCGGTCTCCC
DNA 2: TGGTGGCTACGACGGGATT
B2: GUUCAGA (DNA:RNA)
RNA: B1 RNA with U25G, G26U, U28C, G29A, C30G, C31A
DNA 1: CAATCTGAATTCCGGTCTCCC
DNA 2: TGGTGGCTACGACGGGATT
B3: GACUGAG (DNA:RNA)
RNA: B1 RNA with U25G, G26A, U27C, C30A, C31G
DNA 1: CAATCTGAATTCCGGTCTCCC
DNA 2: TGGTGGCTACGACGGGATT
B4: UUGGGUA (DNA:RNA)
RNA: B1 RNA with G26U, U27G, U28G, C30U, C31A
DNA 1: CAATCTGAATTCCGGTCTCCC
DNA 2: TGGTGGCTACGACGGGATT
B5: UACAUAU (DNA:RNA)
RNA: B1 RNA with G26A, U27C, U28A, G29U, C30A, C31U
DNA 1: CAATCTGAATTCCGGTCTCCC
DNA 2: TGGTGGCTACGACGGGATT
B6: AGCAUCG (DNA:RNA)
RNA: B1 RNA with U25A, U27C, U28A, G29U, C31G
DNA 1: CAATCTGAATTCCGGTCTCCC
DNA 2: TGGTGGCTACGACGGGATT
B7: CAUUAGU (DNA:RNA)
RNA: B1 RNA with U25C, G26A, G29A, C30G, C31U
DNA 1: CAATCTGAATTCCGGTCTCCC
DNA 2: TGGTGGCTACGACGGGATT
B8: CUGAGUU (DNA:RNA)
RNA: B1 RNA with U25C, G26U, U27G, U28A, C30U, C31U
DNA 1: CAATCTGAATTCCGGTCTCCC
DNA 2: TGGTGGCTACGACGGGATT
B9: CAGUUUC (DNA:RNA)
RNA: B1 RNA with U25C, G26A, U27G, G29U, C30U
DNA 1: CAATCTGAATTCCGGTCTCCC
DNA 2: TGGTGGCTACGACGGGATT
B10: AUUGUCG (DNA:RNA)
RNA: B1 RNA with U25A, G26U, U28G, G29U, C31G
DNA 1: CAATCTGAATTCCGGTCTCCC
DNA 2: TGGTGGCTACGACGGGATT
B11: UUCGGGC (DNA:RNA)
RNA: B1 RNA with G26U, U27C, U28G, C30G
DNA 1: CAATCTGAATTCCGGTCTCCC
DNA 2: TGGTGGCTACGACGGGATT
B12: GCGUCCA (DNA:RNA)
RNA: B1 RNA with U25G, G26C, U27G, G29C, C31A
DNA 1: CAATCTGAATTCCGGTCTCCC
DNA 2: TGGTGGCTACGACGGGATT
B13: UACAACC (DNA:RNA)
RNA: B1 RNA with G26A, U27C, U28A, G29A
DNA 1: CAATCTGAATTCCGGTCTCCC
DNA 2: TGGTGGCTACGACGGGATT
B14: GUGCUAA (DNA:RNA)
RNA: GGGAGACCGGAAUUCAGAUUGUCCGUGCUAAUUAAAUCCCGUCGUAGCCACCA
DNA 1: CAATCTGAATTCCGGTCTCCC
DNA 2: TGGTGGCTACGACGGGATT
B15: GGCGCCC (DNA:RNA)
RNA: B1 RNA with U25G, U27C, U28G, G29C
DNA 1: CAATCTGAATTCCGGTCTCCC
DNA 2: TGGTGGCTACGACGGGATT
B16: UGAUCGU (DNA:RNA)
RNA: B1 RNA with U27A, G29C, C30G, C31U
DNA 1: CAATCTGAATTCCGGTCTCCC
DNA 2: TGGTGGCTACGACGGGATT
B17: AGUAUGU (DNA:RNA)
RNA: B1 RNA with U25A, U28A, G29U, C30G, C31U
DNA 1: CAATCTGAATTCCGGTCTCCC
DNA 2: TGGTGGCTACGACGGGATT
B18: UUGUGUG (DNA:RNA)
RNA: B1 RNA with G26U, U27G, C30U, C31G
DNA 1: CAATCTGAATTCCGGTCTCCC
DNA 2: TGGTGGCTACGACGGGATT
B19: GUGAUCU (DNA:RNA)
RNA: B14 RNA with C28A, A30C, A31U
DNA 1: CAATCTGAATTCCGGTCTCCC
DNA 2: TGGTGGCTACGACGGGATT
B20: GCAGGCA (DNA:RNA)
RNA: B14 RNA with U26C, G27A, C28G, U29G, A30C
DNA 1: CAATCTGAATTCCGGTCTCCC
DNA 2: TGGTGGCTACGACGGGATT
B21: CUGUAUA (DNA:RNA)
RNA: B14 RNA with G25C, C28U, U29A, A30U
DNA 1: CAATCTGAATTCCGGTCTCCC
DNA 2: TGGTGGCTACGACGGGATT
B22: UGGGAGA (DNA:RNA)
RNA: B14 RNA with G25U, U26G, C28G, U29A, A30G
DNA 1: CAATCTGAATTCCGGTCTCCC
DNA 2: TGGTGGCTACGACGGGATT
B23: AUCGGAA (DNA:RNA)
RNA: B14 RNA with G25A, G27C, C28G, U29G
DNA 1: CAATCTGAATTCCGGTCTCCC
DNA 2: TGGTGGCTACGACGGGATT
B24: UAGCUGG (DNA:RNA)
RNA: B14 RNA with G25U, U26A, A30G, A31G
DNA 1: CAATCTGAATTCCGGTCTCCC
DNA 2: TGGTGGCTACGACGGGATT
B25: AUUUCAC (DNA:RNA)
RNA: B1 RNA with U25A, G26U, G29C, C30A
DNA 1: CAATCTGAATTCCGGTCTCCC
DNA 2: TGGTGGCTACGACGGGATT
B26: CUCGGCG (DNA:RNA)
RNA: B1 RNA with U25C, G26U, U27C, U28G, C31G
DNA 1: CAATCTGAATTCCGGTCTCCC
DNA 2: TGGTGGCTACGACGGGATT
B27: AGCUGUC (DNA:RNA)
RNA: B1 RNA with U25A, U27C, C30U
DNA 1: CAATCTGAATTCCGGTCTCCC
DNA 2: TGGTGGCTACGACGGGATT
B28: CGCGAUG (DNA:RNA)
RNA: B1 RNA with U25C, U27C, U28G, G29A, C30U, C31G
DNA 1: CAATCTGAATTCCGGTCTCCC
DNA 2: TGGTGGCTACGACGGGATT
B29: CGGUUUG (DNA:RNA)
RNA: B14 RNA with G25C, U26G, C28U, A30U, A31G
DNA 1: CAATCTGAATTCCGGTCTCCC
DNA 2: TGGTGGCTACGACGGGATT
B30: CGAUAAU (DNA:RNA)
RNA: B1 RNA with U25C, U27A, G29A, C30A, C31U
DNA 1: CAATCTGAATTCCGGTCTCCC
DNA 2: TGGTGGCTACGACGGGATT
B31: UCUGAAU (DNA:RNA)
RNA: B1 RNA with G26C, U28G, G29A, C30A, C31U
DNA 1: CAATCTGAATTCCGGTCTCCC
DNA 2: TGGTGGCTACGACGGGATT

The experiment has as its target T1, RBFOX1 RRM RbFoxmut (Fox-RRM*) (Homo sapiens, UniProt Q9NWB1 109-208, R118D;E147R;N151S;E152T).
T1 sequence: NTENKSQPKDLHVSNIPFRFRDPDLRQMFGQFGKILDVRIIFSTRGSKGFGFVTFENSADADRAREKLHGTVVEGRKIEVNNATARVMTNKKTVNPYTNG
Put plainly: EMSA; HiTS-Eq, 1 nM pool, 10 min; buffer printed only for the single-RNA assays: 10 mM Tris pH 7.5, 150 mM NaCl, 3.4 mM EDTA, 0.001% NP-40, 30 C. To be noted: tags: His6 N-terminal (pET28a); label: 5' 32P. The method, boiled down:
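Purified wild-type or mutant RbFox RRM at increasing concentrations was equilibrated with 1 nM of 5′-radiolabelled RNA carrying 7 randomized nucleotides for 10 min in 50 µL. Unbound RNA was separated by 8% native PAGE and sequenced. Relative association constants came from read-count changes of each RNA species compared with the control reaction, normalised to the cognate motif.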
Regarding B1, the binding signal is 0.296 KA relative to UGCAUGU.

With B2, the binding signal was 0.151 KA relative to UGCAUGU.

Consider B3, for which the binding signal was 0.179 KA relative to UGCAUGU.

As to B4, the binding signal was 0.211 KA relative to UGCAUGU.

On to B5, for which the binding signal was 0.0634 KA relative to UGCAUGU.

Consider B6, for which the binding signal was 0.437 KA relative to UGCAUGU.

With B7, the binding signal was 0.137 KA relative to UGCAUGU.

Regarding B8, the binding signal was 0.0992 KA relative to UGCAUGU.

As for B9, the binding signal is 0.142 KA relative to UGCAUGU.

As to B10, the binding signal is 0.136 KA relative to UGCAUGU.

Consider B11, for which the binding signal is 0.0523 KA relative to UGCAUGU.

In the case of B12, the binding signal was 0.0731 KA relative to UGCAUGU.

Regarding B13, the binding signal was 0.0738 KA relative to UGCAUGU.

Turning to B14, the binding signal is 0.0948 KA relative to UGCAUGU.

As to B15, the binding signal is 0.0838 KA relative to UGCAUGU.

Take B16: the binding signal was 0.169 KA relative to UGCAUGU.

For B17, the binding signal is 0.351 KA relative to UGCAUGU.

In the case of B18, the binding signal is 0.491 KA relative to UGCAUGU.

Regarding B19, the binding signal was 0.0684 KA relative to UGCAUGU.

Regarding B20, the binding signal was 0.0998 KA relative to UGCAUGU.

With B21, the binding signal was 0.121 KA relative to UGCAUGU.

As to B22, the binding signal was 0.137 KA relative to UGCAUGU.

B23: the binding signal is 0.114 KA relative to UGCAUGU.

In the case of B24, the binding signal was 0.105 KA relative to UGCAUGU.

For B25, the binding signal was 0.0956 KA relative to UGCAUGU.

Regarding B26, the binding signal is 0.118 KA relative to UGCAUGU.

Consider B27, for which the binding signal is 0.2 KA relative to UGCAUGU.

As to B28, the binding signal was 0.16 KA relative to UGCAUGU.

Take B29: the binding signal was 0.633 KA relative to UGCAUGU.

B30: the binding signal is 0.0542 KA relative to UGCAUGU.

Take B31: the binding signal was 0.0664 KA relative to UGCAUGU.
